# Measured values: the supplement of paper PMC8728848
# The other results are listed elsewhere or left out.
# Experiments:
# Test in all cases: glycan array binding signal (z-score within array); higher = stronger binding
# Settings in all cases: glycan notation: IUPAC condensed, linker removed
# [1] = target: GlcNAc(a1-4)Gal(b1-4)GlcNAc(b1-3)Gal(b1-4)GlcNAc(b1-3)Gal(b1-4)GlcNAc
# How it was run: (§1)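 Glycan array binding is given as a within-array Z-score, which can be read as non-binding when negative. The arrays, 3228 of them, came from the Consortium for Functional Glycomics database and were retained only where the protein sequence was available. Z-scores were averaged across arrays of the same protein sequence at different concentrations or buffers and across linkers.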
# [2] = target: GlcNAc(a1-4)Gal(b1-4)GlcNAc(b1-3)Gal(b1-4)[Fuc(a1-3)]GlcNAc(b1-3)Gal(b1-4)[Fuc(a1-3)]GlcNAc
# How it was run: as §1
# [3] = target: GlcNAc(a1-6)Gal(b1-4)GlcNAc
# How it was run: as §1
# [4] = target: GlcNAc(b1-2)Gal(b1-3)GalNAc
# How it was run: as §1
# [5] = target: GlcNAc(b1-2)Man(a1-3)[GlcNAc(b1-2)Man(a1-6)]Man(b1-4)GlcNAc(b1-4)GlcNAc
# How it was run: as §1
# [6] = target: GlcNAc(b1-2)Man(a1-3)[GlcNAc(b1-2)Man(a1-6)]Man(b1-4)GlcNAc(b1-4)[Fuc(a1-6)]GlcNAc
# How it was run: as §1
# [7] = target: GlcNAc(b1-3)Gal
# How it was run: as §1
# [8] = target: GlcNAc(b1-3)Gal(b1-3)GalNAc
# How it was run: as §1
# [9] = target: GlcNAc(b1-3)Gal(b1-4)Glc
# How it was run: as §1
# [10] = target: GlcNAc(b1-3)Gal(b1-4)GlcNAc
# How it was run: as §1
# [11] = target: GlcNAc(b1-3)Gal(b1-4)GlcNAc(b1-3)Gal(b1-4)GlcNAc
# How it was run: as §1
# [12] = target: GlcNAc(b1-3)GalNAc
# How it was run: as §1
# [13] = target: GlcNAc(b1-3)Man
# How it was run: as §1
# [14] = target: GlcNAc(b1-3)[GlcNAc(b1-4)][GlcNAc(b1-6)]GlcNAc
# How it was run: as §1
# [15] = target: GlcNAc(b1-3)[GlcNAc(b1-6)]Gal(b1-4)GlcNAc
# How it was run: as §1
# [16] = target: GlcNAc(b1-3)[GlcNAc(b1-6)]GalNAc
# How it was run: as §1
# [17] = target: GlcNAc(b1-4)Gal(b1-4)GlcNAc
# How it was run: as §1
# [18] = target: GlcNAc(b1-4)GlcNAc
# How it was run: as §1
# [19] = target: GlcNAc(b1-4)GlcNAc(b1-4)GlcNAc
# How it was run: as §1
# [20] = target: GlcNAc(b1-4)GlcNAc(b1-4)GlcNAc(b1-4)GlcNAc(b1-4)GlcNAc
# How it was run: as §1
# [21] = target: GlcNAc(b1-4)GlcNAc(b1-4)GlcNAc(b1-4)GlcNAc(b1-4)GlcNAc(b1-4)GlcNAc
# How it was run: as §1
# [22] = target: GlcNAc(b1-4)[GlcNAc(b1-6)]GalNAc
# How it was run: as §1
# [23] = target: GlcNAc(b1-6)Gal(b1-4)GlcNAc
# How it was run: as §1
# [24] = target: GlcNAc(b1-6)GalNAc
# How it was run: as §1
# [25] = target: GlcNAc3Prop(b1-4)GlcNAc
# How it was run: as §1
# [26] = target: GlcNAc6S(b1-3)Gal(b1-4)GlcNAc
# How it was run: as §1
# [27] = target: Kdn(a2-3)Gal(b1-3)GalNAc
# How it was run: as §1
# [28] = target: Kdn(a2-3)Gal(b1-3)GlcNAc
# How it was run: as §1
# [29] = target: Kdn(a2-3)Gal(b1-4)Glc
# How it was run: as §1
# [30] = target: Kdn(a2-3)Gal(b1-4)GlcNAc
# How it was run: as §1
# [31] = target: Kdn(a2-3)Gal(b1-4)[Fuc(a1-3)]GlcNAc
# How it was run: as §1
# [32] = target: Kdn(a2-6)Gal(b1-4)GlcNAc
# How it was run: as §1
# [33] = target: Man(a1-2)Man(a1-2)Man(a1-3)Man
# How it was run: as §1
# [34] = target: Man(a1-2)Man(a1-2)Man(a1-6)[Man(a1-3)]Man
# How it was run: as §1
# [35] = target: Man(a1-2)Man(a1-3)Man
# How it was run: as §1
# [36] = target: Man(a1-2)Man(a1-3)[Man(a1-2)Man(a1-6)]Man
# How it was run: as §1
# [37] = target: Man(a1-2)Man(a1-3)[Man(a1-2)Man(a1-6)]Man(a1-6)[Man(a1-2)Man(a1-2)Man(a1-3)]Man
# How it was run: as §1
# [38] = target: Man(a1-2)Man(a1-3)[Man(a1-2)Man(a1-6)]Man(a1-6)[Man(a1-2)Man(a1-2)Man(a1-3)]Man(b1-4)GlcNAc(b1-4)GlcNAc
# How it was run: as §1
# [39] = target: Man(a1-2)Man(a1-3)[Man(a1-6)]Man(a1-6)[Man(a1-2)Man(a1-3)]Man(b1-4)GlcNAc(b1-4)GlcNAc
# How it was run: as §1
# [40] = target: Man(a1-2)Man(a1-6)[Man(a1-3)]Man(a1-6)[Man(a1-2)Man(a1-2)Man(a1-3)]Man
# How it was run: as §1
# [41] = target: Man(a1-2)Man(a1-6)[Man(a1-3)]Man(a1-6)[Man(a1-2)Man(a1-2)Man(a1-3)]Man(b1-4)GlcNAc(b1-4)GlcNAc
# How it was run: as §1
# [42] = target: Man(a1-3)[Man(a1-6)]Man
# How it was run: as §1
# [43] = target: Man(a1-3)[Man(a1-6)]Man(a1-6)[Man(a1-2)Man(a1-3)]Man(b1-4)GlcNAc(b1-4)GlcNAc
# How it was run: as §1
# [44] = target: Man(a1-3)[Man(a1-6)]Man(a1-6)[Man(a1-3)]Man
# How it was run: as §1
binder,measurement,setting,value
"DGL (Dioclea grandiflora), P08902 (protein) ADTIVAVELDSYPNTDIGDPNYPHIGIDIKSIRSKSTARWNMQTGKVGTVHISYNSVAKRLSAVVSYSGSSSTTVSYDVDLNNVLPEWVRVGLSATTGLYKETNTILSWSFTSKLKTNSIADENSLHFSFHKFSQNPKDLILQGDAFTDSDGNLELTKVSSSGDPQGNSVGRALFYAPVHIWESSAVVASFDATFTFLIKSPDREPADGITFFIANTDTSIPSGSGGRLLGLFPDAN",glycan array binding signal (z-score),[1],-0.167
same,glycan array binding signal (z-score),[2],0.009
same,glycan array binding signal (z-score),[3],-0.17
same,glycan array binding signal (z-score),[4],-0.177
same,glycan array binding signal (z-score),[5],1.26
same,glycan array binding signal (z-score),[6],0.316
same,glycan array binding signal (z-score),[7],-0.178
same,glycan array binding signal (z-score),[8],-0.185
same,glycan array binding signal (z-score),[9],-0.182
same,glycan array binding signal (z-score),[10],-0.179
same,glycan array binding signal (z-score),[11],-0.179
same,glycan array binding signal (z-score),[12],-0.158
same,glycan array binding signal (z-score),[13],-0.182
same,glycan array binding signal (z-score),[14],-0.183
same,glycan array binding signal (z-score),[15],-0.183
same,glycan array binding signal (z-score),[16],-0.175
same,glycan array binding signal (z-score),[17],-0.171
same,glycan array binding signal (z-score),[18],-0.178
same,glycan array binding signal (z-score),[19],-0.177
same,glycan array binding signal (z-score),[20],-0.173
same,glycan array binding signal (z-score),[21],-0.177
same,glycan array binding signal (z-score),[22],-0.167
same,glycan array binding signal (z-score),[23],-0.171
same,glycan array binding signal (z-score),[24],-0.181
same,glycan array binding signal (z-score),[25],-0.178
same,glycan array binding signal (z-score),[26],-0.155
same,glycan array binding signal (z-score),[27],-0.175
same,glycan array binding signal (z-score),[28],-0.18
same,glycan array binding signal (z-score),[29],-0.178
same,glycan array binding signal (z-score),[30],-0.172
same,glycan array binding signal (z-score),[31],-0.176
same,glycan array binding signal (z-score),[32],-0.162
same,glycan array binding signal (z-score),[33],0.499
same,glycan array binding signal (z-score),[34],5.91
same,glycan array binding signal (z-score),[35],1.58
same,glycan array binding signal (z-score),[36],9.67
same,glycan array binding signal (z-score),[37],3.48
same,glycan array binding signal (z-score),[38],-0.111
same,glycan array binding signal (z-score),[39],6.68
same,glycan array binding signal (z-score),[40],7.91
same,glycan array binding signal (z-score),[41],6.41
same,glycan array binding signal (z-score),[42],3.63
same,glycan array binding signal (z-score),[43],1.2
same,glycan array binding signal (z-score),[44],2.21
